# “And” between values parts separate entries of the source, which are not always exact repeats. Identical values can stand only once. Screen size: about 390,000 compounds; about 4,000 (1%) were called active. Inconclusive means that the source gave no clear call. Such entries were picked first, then a sample of the others. Calls follow the shape of the dose curve; as a rule, active = well fitted inhibition curve with a large enough effect; inconclusive = small, poorly fitted or top-dose-only effect; inactive = no such curve, though single readings can be large or run the other way. A potency beside an inconclusive call is a rough fit, not a confirmed value.
# Biological target: Thioredoxin reductase 1, cytoplasmic (Rattus norvegicus) (UniProt O89049)
# Assay: qHTS Assay for Inhibitors of Mammalian Selenoprotein Thioredoxin Reductase 1 (TrxR1): qHTS; also: nearly all actives have a fitted effect of over 65% in size
# Details: recombinant rTrxR1, NADPH fluorescence consumption, selenite substrate; series mostly up to 114 µM; activity change, negative = inhibition: at the top concentration
# Outline: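 Rat TrxR1 (90 nM in the dispensed reagent) was pre-reduced with 400 uM NADPH for 5 min at room temperature, then incubated with compound for 15 min. After 400 uM selenite was added, NADPH fluorescence (Ex 340/Em 450 nm) was followed for 8 min.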
# % is scaled to controls: 0 for no effect and ±100 for the full control effect; potency is read from the fitted curve at half-maximal effect; tags tell the direction and shape of the fitted curve.
# UniProt O89049, sequence (O89049 whole entry, looked up): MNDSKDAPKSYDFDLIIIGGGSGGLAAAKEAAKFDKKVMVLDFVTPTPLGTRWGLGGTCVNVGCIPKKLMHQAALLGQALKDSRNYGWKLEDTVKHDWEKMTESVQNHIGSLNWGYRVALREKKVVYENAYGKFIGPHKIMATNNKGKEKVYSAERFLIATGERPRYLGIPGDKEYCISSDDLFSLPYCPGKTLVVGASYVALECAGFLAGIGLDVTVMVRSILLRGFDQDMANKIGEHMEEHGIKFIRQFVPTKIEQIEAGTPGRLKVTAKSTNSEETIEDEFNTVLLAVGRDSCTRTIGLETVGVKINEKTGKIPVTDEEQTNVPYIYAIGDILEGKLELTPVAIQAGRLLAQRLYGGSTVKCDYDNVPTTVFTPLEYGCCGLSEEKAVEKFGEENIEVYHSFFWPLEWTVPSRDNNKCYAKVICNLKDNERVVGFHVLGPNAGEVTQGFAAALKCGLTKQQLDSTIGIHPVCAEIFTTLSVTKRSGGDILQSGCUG
SMILES,Potency,"activity change, negative = inhibition"
Cc1ccccc1CNC(=O)Cn1cc2c(n1)-c1c(oc(C(=O)N3CCCC3)c1C)CC2,"inconclusive: 2.82 µM [inhibitor, full curve]",
O=C(COc1ccccc1)NNC(=S)NC(=O)c1ccc(Cl)cc1Cl,"inconclusive: 50.1 µM [inhibitor, partial curve]",
CCn1c(SCC(=O)c2ccc(CNC(C)=O)o2)nnc1-c1cccs1,"inconclusive: 56.2 µM [inhibitor, single point]",
CCN1CCc2nc(SCC(=O)Nc3ccc(OC)cc3)c(C#N)cc2C1,active: 17.8 µM,
Cc1occc1-c1nnc(SCC(=O)c2ccc(Cl)cc2)n1C,"inconclusive: 28.2 µM [inhibitor, single point]",
Cc1ccccc1-n1nc2c(c1NC(=O)C(C)C)CS(=O)(=O)C2,"inconclusive: 3.55 µM [inhibitor, partial curve, poor fit]",
Cc1cccc(C)c1NC(=O)C1CCCNC1 (configuration not stated),"inconclusive: 39.8 µM [inhibitor, partial curve]",
COc1ccc(CCN2C(=O)CC(Nc3ccc(N4CCOCC4)cc3)C2=O)cc1OC (configuration not stated),"inconclusive: 25.1 µM [inhibitor, single point]",
Cc1ccc(N2C3=C(C(=O)CC(C)(C)C3)C(c3cn(C)nc3C)C3=C2CC(C)(C)CC3=O)cc1,"inconclusive: 50.1 µM [inhibitor, partial curve]",
Cc1cccc(N2CCN(S(=O)(=O)c3ccc(F)c(C(=O)Nc4cccc(Cl)c4C)c3)CC2C)c1 (configuration not stated),"inconclusive: 3.55 µM [inhibitor, partial curve]",
CCCC1C2CN(C(C)C)CC=C2C(C#N)=C(N)C1(C#N)C#N (configuration not stated),"inconclusive: 22.4 µM [inhibitor, full curve, poor fit]",
O=C(Cn1cc(C(=O)c2ccco2)c2ccccc21)NCc1ccco1,"inconclusive: 39.8 µM [inhibitor, partial curve, poor fit]",
O=C(CN1C(=O)c2ccccc2C1=O)Nc1sc2c(c1C(=O)NCC1CCCO1)CCC2 (configuration not stated),"inconclusive: 12.6 µM [inhibitor, partial curve, poor fit]",
CCN(CC)c1ccc(/C=N/Nc2nn[nH]n2)cc1,"inconclusive: 79.4 µM [inhibitor, single point]",
COCCn1c(C)cc(C(=O)CN2CCCCC2)c1C,"inconclusive: 50.1 µM [inhibitor, partial curve, poor fit]",
COC(=O)c1c(C)[nH]c(O)c1C=Nc1ccc(C#N)cc1,"inconclusive: 2.51 µM [inhibitor, full curve, poor fit]",
O=C1/C(=C/c2ccncc2)SC(=S)N1Nc1ccccc1,active: 4.47 µM,
Nc1cc(Cl)ccc1N1CCCCCC1,"inconclusive: 17.8 µM [inhibitor, single point]",
Cc1ccc(NC(=O)CN(C)C(=O)c2cc(C)on2)cc1,"inconclusive: 100 µM [inhibitor, single point]",
CCOc1ccc(Cc2nc(N)nc(N)n2)cc1,"inconclusive: 89.1 µM [inhibitor, single point]",
O=C1CC(c2ccc(Cl)cc2)CC(=O)C1CS(=O)(=O)c1ccccc1 (configuration not stated),"inconclusive: 25.1 µM [inhibitor, single point]",
CCN(C(=O)c1cc2c(=O)[nH]c3ccc(C)cc3c2s1)c1ccc(F)cc1,,inactive: 23.3% [at 57.1 µM]
Nc1nc(SCC(=O)c2ccc([N+](=O)[O-])cc2)n[nH]1,"inconclusive: 31.6 µM [inhibitor, partial curve, poor fit]",

SMILES,Potency,"activity change, negative = inhibition"
O=[N+]([O-])c1cc(S(=O)(=O)C(F)(F)F)ccc1Sc1nc2ccccc2[nH]1,active: 8.91 µM,
CC1CCCCC1NC(=O)CCS(=O)(=O)c1cccc2nonc12 (configuration not stated),"inconclusive: 15.8 µM [inhibitor, full curve]",
Cc1cccc(NC(=S)NNC(=O)c2csc(C(C)C)c2)c1,"inconclusive: 14.1 µM [inhibitor, partial curve, poor fit]",
O=C(O)CCNc1cc(N2CCN(C(=O)c3ccco3)CC2)c2noc3c2c1C(=O)c1ccccc1-3,active: 35.5 µM,
Cc1nn2c(=O)cc(COC(=O)c3ccccc3NC(=O)C(C)C)nc2s1,,inactive: 11.5% [at 57.1 µM]
O=C(c1ccc(OC2CCN(CCc3ccccc3)CC2)cc1)N1CCCC(CCCO)C1 (configuration not stated),,inactive: 1.89%
CC1(C)OC(=O)C(=CNc2ccccn2)C(=O)O1,"inconclusive: 1 µM [inhibitor, full curve, poor fit]",
CCOc1ccc(N(C(=O)c2cnccn2)C(C(=O)NC2CCCCC2)c2ccc(O)cc2)cc1 (configuration not stated),"inconclusive: 39.8 µM [inhibitor, single point]",
CSc1cccc(NC(=S)NC(=O)c2cccnc2)c1,"inconclusive: 14.1 µM [inhibitor, full curve]",
COCCOC(=O)C1=C(C)NC(C)=C(C(=O)OC(C)C)C1c1cccc([N+](=O)[O-])c1 (configuration not stated),"inconclusive: 20 µM [inhibitor, full curve] and inconclusive: 11.2 µM [inhibitor, partial curve, poor fit]",
NCCS,inactive,
Cc1ccc(Nc2c(-c3ccc(C)s3)nc3cccc(C)n23)cc1,,inactive: 23.5%
COc1ccc(N2CSC3=C(C#N)C(c4cccs4)CC(=O)N3C2)cc1 (configuration not stated),,inactive: 9.59%
CC1(C)CC(=O)c2sc(NS(=O)(=O)c3ccc([N+](=O)[O-])cc3)nc2C1,"inconclusive: 56.2 µM [inhibitor, partial curve, poor fit]",
O=C(NCCCN1CCOCC1)c1cc(-c2ccc(Cl)s2)nc2ccccc12,"inconclusive: 89.1 µM [inhibitor, single point]",
NC(=O)c1cc(N2C(=O)C=CC2=O)ccc1Cl,active: 1 µM,
Cc1ccc(NC(=S)NNc2ccc(C(=O)O)cc2[N+](=O)[O-])cc1C,,inactive: -5.3% [at 57.1 µM]
Cc1cccc(Sc2c([N+](=O)[O-])ncn2C)n1,"inconclusive: 70.8 µM [inhibitor, single point]",
O=c1oc2cc(O)ccc2c2ccccc12,,inactive: 5.88% [at 57.1 µM]
O=C(CNC(=O)c1ccccc1)OCC(=O)c1cccs1,,inactive: 22.5%
CN1C(C(=O)Nc2ccccn2)=C(O)c2ccccc2S1(=O)=O,"inconclusive: 2.67 µM [inhibitor, partial curve, poor fit]",
NS(=O)(=O)c1ccc(NC(=S)NCc2ccccc2Cl)cc1,"inconclusive: 17.8 µM [inhibitor, full curve]",
COc1ccc(N2CN=C3SCC(=O)N3C2)cc1,"inconclusive: 35.5 µM [inhibitor, single point]",

SMILES,Potency,"activity change, negative = inhibition"
c1ccc2c(-c3[nH]ncc3CNCCCn3ncc4ccccc43)cccc2c1,"inconclusive: 25.1 µM [inhibitor, single point]",
Cc1nnc(SCC(=O)c2ccc([N+](=O)[O-])cc2)s1,"inconclusive: 39.8 µM [inhibitor, partial curve, poor fit]",
O=C1/C(=C/c2ccco2)SC(=S)N1CC1CCCO1 (configuration not stated),"inconclusive: 28.2 µM [inhibitor, single point]",
CCOC(=O)c1nc2sc3c(c2c(=O)n1C(C)C(=O)OCC)CCCC3 (configuration not stated),"inconclusive: 44.7 µM [inhibitor, partial curve]",
Cc1cccc(-n2c3nc(=O)[nH]c(=O)c-3cc3cc([N+](=O)[O-])ccc32)c1,"inconclusive: 70.8 µM [inhibitor, partial curve, poor fit]",
CCOc1ccccc1C(=O)Nc1cc2c(cc1N1CCCC1)n(CC)c(=O)n2CC,,inactive: -16.8%
CCOC(=O)C1CCN(S(=O)(=O)c2c(C)[nH]c(=O)[nH]c2=O)CC1,,inactive: 4.67% [at 57.1 µM]
Cc1cccc(N2C(=O)CC(Sc3nc(C)cc(C)n3)C2=O)c1 (configuration not stated),"inconclusive: 25.1 µM [inhibitor, full curve, poor fit]",
CC(C)(C)c1ccc(-c2nc(-c3ccncc3)no2)cc1,,inactive: -3.71%
OCCCNC(c1ccccc1)c1ccc(O)cc1 (configuration not stated),"inconclusive: 14.1 µM [inhibitor, partial curve]",
O=C(NC(=S)/C(=C1\CCCCCN1)[N+](=O)[O-])c1ccccc1,"inconclusive: 70.8 µM [inhibitor, partial curve]",
COCCCNC(=O)c1cc2c(=O)n3cccc(C)c3nc2n(C(C)C)c1=N,"inconclusive: 63.1 µM [inhibitor, single point]",
S=c1[nH]nc(Nc2ccccc2Cl)s1,"inconclusive: 4.47 µM [inhibitor, partial curve, poor fit]",
Oc1ccc(C2Nc3cccc4cccc(c34)N2)cc1,"inconclusive: 56.2 µM [inhibitor, single point]",
Cc1cc(C(=O)CS(=O)(=O)c2ccc(F)cc2)cc(C)c1O,"inconclusive: 20 µM [inhibitor, partial curve]",
C[N+]1(CCC(=O)c2ccccc2)CCCCC1,"inconclusive: 1.12 µM [inhibitor, full curve, poor fit]",
CCOc1cccc(/C(O)=C2/C(=O)C(=O)N(CCOC)C2c2ccc(C)o2)c1 (configuration not stated),"inconclusive: 28.2 µM [inhibitor, single point]",
CC(=O)c1cccc(NC(=S)NC(=O)c2ccccc2C)c1,"inconclusive: 20 µM [inhibitor, single point]",
CC(C)CC(NC(=O)/C(=C/c1ccco1)NC(=O)c1ccc(Br)o1)C(=O)O (configuration not stated),"inconclusive: 20 µM [inhibitor, full curve]",
Cc1ccc(-c2nc(CS(=O)CC(=O)NCc3ccccn3)c(C)o2)cc1 (configuration not stated),"inconclusive: 17.8 µM [inhibitor, single point]",
COCC(=O)Nc1nc2n(n1)C(c1ccccc1Cl)CC(c1ccc(OC)cc1)N2 (configuration not stated),"inconclusive: 25.1 µM [inhibitor, full curve]",

# From PubChem BioAssay AID588453 (National Center for Advancing Translational Sciences (NCATS), 2011)
